In ChEMBL document CHEMBL4888484, “Replenishing the malaria drug discovery pipeline: Screening and hit evaluation of the MMV Hit Generation Library 1 (HGL1) against asexual blood stage Plasmodium falciparum ,using a nano luciferase reporter read-out” (2022):
Among all 150,000 compounds or so, about 540 (0.36%) showed an effect of 50% or more. The list shows a part of the results.

Tested on: Plasmodium falciparum
Assay: Primary screen in NF54 nanoGlo assay, in single point, at 2uM, 72h; a lower Z score goes with more inhibition
Format: functional, Erythrocyte
Conditions: timepoint 72 hour

Row | SMILES | % Inhibition | Z score
1 | C=CCN(CC=C)C(=O)Cc1ccc(C)cc1 | -5% | 0.89
2 | CCCc1nc(C)c(CNC(=O)[C@@H]2CCCCCN2C)s1 | -11% | 1.56
3 | O=C(Cn1cc(OCc2ccccc2)c(=O)cc1CO)Nc1cccnc1 | 35% | -3.93
4 | Cc1noc(COCC(=O)N2CC3(CCC3)[C@@H]2C2CC2)n1 | 4% | -0.65
5 | CCS(=O)(=O)c1ccc(N2CCC(NC(=O)C3CCCC3)CC2)cc1 | -3% | 0.53
6 | Cn1nncc1S(=O)(=O)N1CCNC[C@H]1c1cccc(F)c1 | 11% | -1.39
7 | COCCn1ncc2c1[C@@H](NC(=O)c1[nH]ccc1C1CC1)CCC2 | 0% | -0.07
8 | COc1ccccc1N(c1nc(-c2ccc(C)cc2)cs1)[C@@H](C)C(=O)N1CCCC1 | 5% | -0.61
9 | Cc1ccc(-n2ncc3c(O)c(-c4nc(-c5cccc(F)c5)no4)c(=O)[nH]c32)cc1 | -3% | 0.34
10 | O=C(NCC1CCN(C(=O)c2ccc(-n3cnnn3)cc2O)CC1)c1ccco1 | 8% | -1.1
11 | Cc1noc2ncnc(NCc3ccc(Br)cc3)c12 | -14% | 2.27
12 | O=C(CCc1ccccc1)Nc1ccc(NC(=O)c2ccco2)cc1 | -6% | 1.19
13 | Cc1oc(-c2ccsc2)nc1CN(CCO)C(C)C | 19% | -2.44
14 | COc1cc(NC(=O)N2Cc3cn[nH]c3CC(C)(C)C2)cc(Cl)c1OC | -5% | 0.72
15 | Cc1nc(C2CCCN2CC(=O)N2CCCCC2C)cs1 (stereo unspecified) | -3% | 0.4
16 | CS(=O)(=O)c1ccc(NC(=O)CCc2cccs2)cc1Cl | -21% | 2.7
17 | O=C(C[C@H](c1cccc(Cl)c1)c1cn(Cc2ccccc2)c2ccccc12)NCc1ccncc1 | -1% | 0.09
18 | O=C1C(CN2CCCCC2)CCCC1CN1CCCCC1 (stereo unspecified) | -1% | 0.07
19 | O=C(OCc1cc(Cl)c2c(c1)OCO2)c1cc(-c2ccccn2)no1 | -14% | 1.68
20 | COc1cccc(-c2noc(C(F)(F)c3ccccn3)n2)c1 | -10% | 1.53
21 | CC(C)c1noc(CN2C(=O)COc3cccnc32)n1 | -7% | 1.29
22 | O=C(Nc1ccc2c(c1)C(=O)N1CCC[C@H]1C(O)=N2)c1cncc(Br)c1 | -3% | 0.33

Row | SMILES | % Inhibition | Z score
23 | O=C(NC[C@H]1CCCO1)c1csc(N2CCN(c3cccc(Cl)c3)CC2)n1 | -1% | 0.16
24 | C[C@H]1CCCN(S(=O)(=O)N(C)Cc2ncnn2C)C1 | 1% | -0.07
25 | O=C(OCc1cccnc1)N1CCC(S(=O)(=O)Cc2ccccc2)CC1 | -11% | 1.75
26 | Nc1ncc(C(=O)N2CCC3(CCCCCC3)C2)s1 | 97% | -17.77
27 | COCCN(CCOC)C(=O)c1[nH]nc(C(C)C)c1Br | -1% | 0.2
28 | Clc1ccc2c(c1)[C@H]1OCCC[C@H]1C(c1ccccc1)N2 (stereo partly specified) | -1% | 0.21
29 | Cc1nnc2c(N3CCN(C(=O)Cc4c(F)cccc4Cl)CC3)nccn12 | -15% | 2.58
30 | O[C@@H](CNCc1cc(Cl)ccc1F)c1cccnc1 | -2% | 0.41
31 | N#Cc1ccc(CN2CCn3nc(CCC(=O)NC4CCCC4)cc3C2)cc1 | -4% | 0.71
32 | CCCNC(=O)NCCc1ncc(C)n1C(C)C | -7% | 0.71
33 | Cn1cccc1C(=O)N1CCC(n2cc(C(=O)N3CCCC3)nn2)CC1 | 2% | -0.42
34 | Nc1nc(N[C@H]2CCN(Cc3ccccc3)C2)c2cn[nH]c2n1 | -2% | 0.47
35 | CCN(CC)CC(=O)Nc1ccc(Cl)cc1F | 5% | -0.72
36 | O=C(Nc1cc(F)cc2c1OCOC2)N1CC(=O)N2CCc3c(F)cccc3[C@@H]2C1 | -29% | 3.47
37 | CCN(C(=O)c1cnns1)C1CCCCC1C (stereo unspecified) | 4% | -0.59
38 | C[C@](O)(CCCO)CNc1cc(C(N)=O)ccn1 | 0% | -0.03
39 | O=C(N[C@H]1CCc2ccccc21)c1cnccn1 | -7% | 0.9
40 | O=C(CN1CCC[C@H](OCCO)C1)Nc1ccc(Cl)cn1 | -1% | 0.09
41 | CC(C)(C)c1ccc(C(=O)Nc2ccc3[nH]c(=O)oc3c2)cc1 | -5% | 0.66
42 | CCC(C)(C)C(=O)N1CCc2cnccc21 | 3% | -0.38
43 | CCCn1ccnc(NC2CCCC2)c1=O | 2% | -0.39
